The subject of one experiment is HSkMC. The experiment can be described thus: cytotoxicity call (relative viability < 0.9). The following applies: 10 µM.
In another experiment the test system is HepG2. Put plainly: cytotoxicity call (relative viability < 0.9). The conditions noted are these: 10 µM.
The next experiment concerns S. aureus RN4220. Put plainly: growth inhibition call (relative growth <= 0.2). The conditions noted are these: 50 µM.

Each structure is given as a SMILES string. This is one part of the list.

With `CC(C)COC(=O)OCN1C(=O)CN(CCN2CC(=O)N(COC(=O)OCC(C)C)C(=O)C2)CC1=O`, the cytotoxicity call with HSkMC and in the experiment with HepG2 was “inactive” in each case. Also, in the experiment with S. aureus RN4220, the growth inhibition call was “inactive”.
`COc1ccc(NC(=O)N(C)C[C@H]2Oc3ccc(NS(C)(=O)=O)cc3CC(=O)N([C@@H](C)CO)C[C@@H]2C)cc1`: the cytotoxicity call in the experiment on HSkMC and in the experiment on HepG2 was “inactive” throughout. Besides, the growth inhibition call in the experiment with S. aureus RN4220 is “inactive”.
`COc1ccc(NC(=O)Nc2ccc3c(c2)C(=O)N([C@@H](C)CO)C[C@@H](C)[C@H](CN(C)S(=O)(=O)c2c(C)noc2C)OCCCC[C@H](C)O3)cc1`: the cytotoxicity call in the experiment with HSkMC and in the experiment with HepG2 was “inactive” each time. The growth inhibition call in the experiment with S. aureus RN4220 was “inactive”.
In the case of `OCCCn1cnnc1`, the cytotoxicity call in the experiment with HSkMC and in the experiment with HepG2 was “inactive” in each case. Further, the growth inhibition call in the experiment on S. aureus RN4220 was “inactive”.
As to `CC(C)NC(=O)Nc1ccc2c(c1)CC(=O)N([C@H](C)CO)C[C@H](C)[C@H](CN(C)S(=O)(=O)c1cn(C)cn1)O2`, the cytotoxicity call in the experiment with HSkMC and with HepG2 was “inactive” in each case. The growth inhibition call in the experiment on S. aureus RN4220 was “inactive”.
Take `NCC(=O)Nc1nccs1`: the cytotoxicity call in the experiment on HSkMC and in the experiment on HepG2 was “inactive” each time. The growth inhibition call in the experiment on S. aureus RN4220 was “inactive”.
On to `COc1ccc(S(=O)(=O)N(C)C[C@@H]2OCCCC[C@H](C)Oc3ccc(NC(=O)Nc4ccc(C(F)(F)F)cc4)cc3C(=O)N([C@@H](C)CO)C[C@@H]2C)cc1`, for which the cytotoxicity call in the experiment with HSkMC is “inactive”. For the same compound, the cytotoxicity call in the experiment on HepG2 was “active”. Also, the growth inhibition call in the experiment on S. aureus RN4220 is “inactive”.
On to `COc1ccccc1CNC(=O)C[C@@H]1CC[C@@H]2[C@H](COC[C@H](O)CN2C(=O)Nc2ccc(Cl)cc2)O1`, for which the cytotoxicity call with HSkMC and in the experiment with HepG2 was “inactive” each time. Also, the growth inhibition call with S. aureus RN4220 was “inactive”.
In the case of `C[C@@H]1CN([C@H](C)CO)C(=O)c2cc(NC(=O)Nc3ccccc3)ccc2O[C@@H](C)CCCCO[C@H]1CN(C)Cc1ccc(C(=O)O)cc1`, the cytotoxicity call with HSkMC and in the experiment on HepG2 was “inactive” in each case. Besides, the growth inhibition call in the experiment with S. aureus RN4220 was “inactive”.
Consider `Cc1noc(C)c1NC(=O)N(C)C[C@@H]1Oc2c(NC(=O)NC(C)C)cccc2C(=O)N([C@@H](C)CO)C[C@@H]1C`, for which the cytotoxicity call in the experiment with HSkMC and in the experiment on HepG2 was “inactive” throughout. Further, the growth inhibition call in the experiment on S. aureus RN4220 is “inactive”.
For `C[C@H](CO)N1C[C@H](C)[C@@H](CN(C)C)Oc2ccc(NS(C)(=O)=O)cc2CC1=O`, the cytotoxicity call with HSkMC and with HepG2 was “inactive” throughout. Besides, the growth inhibition call in the experiment with S. aureus RN4220 was “inactive”.
For the compound `C[C@H](CO)N1C[C@H](C)[C@@H](CN(C)C(=O)Nc2cccc3ccccc23)OCCCC[C@H](C)Oc2ccc(NC(=O)Nc3ccc(C(F)(F)F)cc3)cc2C1=O`, the cytotoxicity call in the experiment on HSkMC and with HepG2 was “inactive” in each case. For the same compound, the growth inhibition call in the experiment with S. aureus RN4220 is “inactive”.
As for `C[C@@H]1CN([C@H](C)CO)C(=O)c2cc(NS(=O)(=O)c3ccc(Cl)cc3)ccc2O[C@@H](C)CCCCO[C@@H]1CN(C)C(=O)NC1CCCCC1`, the cytotoxicity call in the experiment with HSkMC was “inactive”. The cytotoxicity call in the experiment with HepG2 was “active”. The growth inhibition call in the experiment with S. aureus RN4220 was “inactive”.
In the case of `Cc1noc(C)c1NC(=O)N(C)C[C@H]1Oc2ccc(NC(=O)Nc3cccc4ccccc34)cc2CC(=O)N([C@H](C)CO)C[C@@H]1C`, the cytotoxicity call in the experiment with HSkMC and in the experiment with HepG2 was “inactive” each time. In the experiment with S. aureus RN4220, the growth inhibition call is “inactive”.
Take `Cc1cc(C(=O)Nc2cccc3c2O[C@@H](CN(C)Cc2ccc4c(c2)OCO4)[C@@H](C)CN([C@H](C)CO)C3=O)n(C)n1`: the cytotoxicity call in the experiment on HSkMC and in the experiment on HepG2 was “inactive” each time. For the same compound, the growth inhibition call with S. aureus RN4220 was “inactive”.
As for `CN(C)Cc1cn(CC[C@@H]2CC[C@@H](NC(=O)Cc3cccnc3)[C@H](CO)O2)nn1`, the cytotoxicity call with HSkMC and in the experiment on HepG2 was “inactive” in each case. In addition, in the experiment on S. aureus RN4220, the growth inhibition call is “inactive”.
Turning to `CC(=O)NCCCC[C@@H]1NC(=O)[C@@H]2C[C@H](C(=O)NCCCCCCN)[C@H](c3cccc(OCCO)c3)N2C1=O`, the cytotoxicity call with HSkMC and in the experiment on HepG2 was “inactive” throughout. The growth inhibition call with S. aureus RN4220 is “inactive”.
For `Cc1ccc(N2CCC(CN)CC2)nn1`, the cytotoxicity call in the experiment with HSkMC and in the experiment with HepG2 was “inactive” each time. The growth inhibition call with S. aureus RN4220 is “inactive”.
On to `COc1ccc(CN(C)C[C@@H]2OCCCC[C@@H](C)Oc3ccc(NC(=O)Nc4ccc5c(c4)OCO5)cc3C(=O)N([C@H](C)CO)C[C@@H]2C)cc1`, for which the cytotoxicity call in the experiment on HSkMC and in the experiment with HepG2 was “inactive” each time. In the experiment with S. aureus RN4220, the growth inhibition call was “inactive”.
As for `CC(C)CC#Cc1ccc2c(c1)O[C@H](CN(C)C(=O)C1CCOCC1)[C@@H](C)CN([C@H](C)CO)S2(=O)=O`, the cytotoxicity call in the experiment on HSkMC and in the experiment with HepG2 was “inactive” in each case. Besides, the growth inhibition call in the experiment on S. aureus RN4220 was “inactive”.
Take `Cc1ccc(S(=O)(=O)Nc2ccc3c(c2)C(=O)N([C@@H](C)CO)C[C@@H](C)[C@@H](CN(C)CC2CCCCC2)OCCCC[C@H](C)O3)cc1`: the cytotoxicity call in the experiment with HSkMC and in the experiment on HepG2 was “inactive” throughout. In addition, the growth inhibition call in the experiment on S. aureus RN4220 was “inactive”.
Regarding `Cc1ccc(S(=O)(=O)Nc2cccc3c2O[C@H](CN(C)S(=O)(=O)c2cccs2)[C@H](C)CN([C@H](C)CO)C3=O)cc1`, the cytotoxicity call with HSkMC and in the experiment with HepG2 was “inactive” in each case. In addition, in the experiment with S. aureus RN4220, the growth inhibition call is “inactive”.
Consider `CO[C@H]1CN(C)C(=O)c2ccc(NS(C)(=O)=O)cc2OC[C@H](C)N(C(=O)c2ccc3c(c2)OCO3)C[C@@H]1C`, for which the cytotoxicity call in the experiment with HSkMC and in the experiment with HepG2 was “inactive” each time. The growth inhibition call with S. aureus RN4220 is “inactive”.
Take `CC(C)NC(=O)N(C)C[C@@H]1Oc2ccc(NS(=O)(=O)c3cn(C)cn3)cc2C(=O)N([C@@H](C)CO)C[C@@H]1C`: the cytotoxicity call in the experiment on HSkMC (human skeletal muscle cells) and in the experiment with HepG2 was “inactive” throughout. The growth inhibition call with S. aureus RN4220 is “inactive”.
On to `C[C@@H]1CN([C@@H](C)CO)C(=O)c2cc(NC(=O)Nc3ccc(C(F)(F)F)cc3)ccc2O[C@@H](C)CCCCO[C@H]1CN(C)Cc1ccncc1`, for which the cytotoxicity call in the experiment with HSkMC and in the experiment on HepG2 was “inactive” throughout. In the experiment with S. aureus RN4220, the growth inhibition call was “inactive”.
